The test system of the test is WT mouse embryonic fibroblasts. Description: MNNG cytotoxicity in WT MEFs. The following applies: 24 hours after MNNG 500 μM for 15 min. The method, then: Unless otherwise set forth herein, cell cultures, transfection, lentiviral transduction and cytotoxicity referenced in the examples below were prepared using the following materials and procedures. MEF cells from wild type (“WT”) or Harlequin (“Hq”) mice and HeLa cells were cultured in Dulbecco's Modified Eagle's Medium (obtained from Invitrogen) and supplemented with 10% Fetal Bovine Serum (obtained from HyClone), 100 μg/ml streptomycin, and 100 U/ml penicillin (obtained from Invitrogen). Flag-tagged AIF (both WT and Pbm) was transfected using lipofectamine Plus (obtained from Invitrogen). […] Cell viability was determined the following day by unbiased objective computer-assisted cell counting after staining of all nuclei with 7 μM Hoechst 33342 (obtained from Invitrogen) and dead cell nuclei with 2 μM propidium iodide (Invitrogen). The numbers of total and dead cells were counted with the Axiovision 4.3 software (obtained from Carl Zeiss MicoImaging, Germany). At least three separate experiments using at least six separate wells were performed with a minimum of 15,000-20,000 neurons or cells counted per data point. […] The percentage of cell death was determined as the ratio of live to dead cells as compared with the percentage of cell death in control wells to account for cell death attributed to mechanical stimulation of the cultures. […]

B1: WT-AIF-Flag: C-terminal Flag-tagged mouse wild type AIF, delivered by lentivirus, AAV2 or transfection (protein, UniProt Q9Z0X1 1-612, looked up)
chain: MFRCGGLAGAFKQKLVPLVRTVYVQRPKQRNRLPGNLFQQWRVPLELQMARQMASSGSSGGKMDNSVLVLIVGLSTIGAGAYAYKTIKEDQKRYNERVMGLGLSPEEKQRRAIASATEGGSVPQIRAPSHVPFLLIGGGTAAFAAARSIRARDPGARVLIVSEDPELPYMRPPLSKELWFSDDPNVTKTLQFRQWNGKERSIYFQPPSFYVSAQDLPNIENGGVAVLTGKKVVHLDVRGNMVKLNDGSQITFEKCLIATGGTPRSLSAIDRAGAEVKSRTTLFRKIGDFRALEKISREVKSITVIGGGFLGSELACALGRKSQASGIEVIQLFPEKGNMGKILPQYLSNWTMEKVKREGVKVMPNAIVQSVGVSGGRLLIKLKDGRKVETDHIVTAVGLEPNVELAKTGGLEIDSDFGGFRVNAELQARSNIWVAGDAACFYDIKLGRRRVEHHDHAVVSGRLAGENMTGAAKPYWHQSMFWSDLGPDVGYEAIGLVDSSLPTVGVFAKATAQDNPKSATEQSGTGIRSESETESEASEITIPPSAPAVPQVPVEGEDYGKGVIFYLRDKVVVGIVLWNVFNRMPIARKIIKDGEQHEDLNEVAKLFNIHED
modifications: full-length C-terminal Flag tag
notes: C-terminal Flag-tagged mouse wild type AIF, delivered by lentivirus, AAV2 or transfection
On to B1, for which the “effect on MNNG-induced cell death” value is “failed to affect susceptibility of WT MEFs to MNNG-induced cell death”.

The values above are taken from US20120122765A1, “COMPOUNDS AND RELATED METHODS FOR MANIPULATING PARP-1-DEPENDENT CELL DEATH” (priority 2010, published 2012).
